Source: PubChem BioAssay AID686970 (National Center for Advancing Translational Sciences (NCATS), 2013)
Values joined by “and” are separate entries in the source; they are usually repeats but may differ in a detail not shown here. Equal values may be shown once. Hit rate of the full screen: of about 360,000 compounds, about 6,000 (1.7%) were called active. This list was built around the results that the source calls inconclusive (neither active nor inactive); the mix of calls is not that of the screen. Calls come from the whole dose curve; as a rule, active = well fitted cell-killing curve with a large enough effect; inconclusive = small, poorly fitted or top-dose-only effect, or effect the other way; inactive = flat fitted curve, though single readings scatter. A potency beside an inconclusive call is a rough fit, not a confirmed value.

Assay: qHTS for induction of synthetic lethality in tumor cells producing 2HG: qHTS for the HT-1080-NT fibrosarcoma cell line; note: nearly all actives have a fitted effect of over 55% in size
Conditions: HT-1080-NT fibrosarcoma viability, CellTiter-Glo ATP luminescence, 48 h; activity, negative = less viability: at 46.1 µM (top of the series) unless noted
From the text: Unbiased genomic sequencing for 22 glioma genomes found recurrent mutation of IDH1 on chromosome 2q33, a gene encoding the cytosolic isoform of IDH1 associated with the tricarboxylic acid cycle (TCA) that catalyzes the oxidative decarboxylation of isocitrate, yielding alpha-ketoglutarate and CO2 via NADP+ to NADPH conversion. Subsequent studies confirmed the recurrent IDH mutations in up to 70% of secondary gliomas and in 10% of AML cases. In addition, the somatic mutation of cancer-associated IDH1 is a point mutation resulting in various amino-acid substituents at Arginine132 (IDH1 R132), a key residue found in the enzyme's active site that when mutated, results in the loss-of-function in metabolizing isocitrate but confers a gain-of-function to produce the oncometabolite 2-hydroxyglutarate (2HG). This in effect defines IDH1 as an oncogene and provides an extraordinary opportunity to discover chemical probes against mutant IDH1 that may translate into much needed new therapies for glioma and AML patients.
This assay aims to perform a synthetic lethal screen for chemical probes specific for 2HG-producing tumor cells using matched paired cell lines (1) HT-1080-NT fibrosarcoma cell line that overproduces 2HG and (2) HT-1080-IDH1KD cell line which has IDH1 expression knocked-down. Desirable compounds are toxic to the NT fibrosarcoma cells but not to the IDH1KD cell line. The data in this AID corresponds to the results of the qHTS against the HT-1080-NT fibrosarcoma cell line.
[1] Dang L, Jin S, Su SM. IDH mutations in glioma and acute myeloid leukemia. Trends of Mol Med. 2010; 16(9): 387-97.
[2] Dang L et al. Cancer-associated IDH1 mutations produce 2-hydroxyglutarate. Nature. 2010; 465(7300):966.
NIH Molecular Libraries Probe Production Centers Network [MLPCN]
NIH Chemical Genomics Center [NCGC]
Assay Submitter (PI): Lenny Dang Ph.D., Agios Pharmaceuticals
Suspensions of trypsinized HT-1080-NT cells were dispensed into white, tissue culture-treated, solid 1536-well plates at 5uL/well (750 cells/well final concentration) in RPMI medium supplemented with 5% FBS. Plates were incubated at 37 degrees C for 2 hours, after which 23 nL of compounds or DMSO were delivered to each well using a pin tool. Plates were then incubated at 37 degrees C for an additional 48 hours. CellTiter-Glo viability reagent (Promega) was dispensed into wells (2.5uL/well) and incubated at room temperature for 10 minutes. The plates were measured on a PerkinElmer ViewLux plate reader for luminescent signal (clear filter, 1 sec exp). DMSO-treated control wells and media-only (no cells) control wells were used to normalize %Activity of identified toxic compounds; DMSO-treated wells corresponded to 0%Activity (100% viability), while media-only controls were used to normalize 100%Activity (0% viability).
Concentration-response curves were fitted to the signals arising from the resulting luminescence. The concentration-effect curves were then classified based on curve quality (r2), response magnitude and degree of measured activity, and compounds were subsequently categorized based on their curve class.
Potency is the fitted concentration of half-maximal effect; tags give direction and shape of the fitted curve.

Row | SMILES | Potency | activity, negative = less viability
1 | Cc1ccc(-c2nn(CC(=O)NCc3ccco3)c(=O)c3ccccc23)cc1 | inconclusive: 16.4 µM [cytotoxic, single point] | 
2 | O=S(=O)(Nc1cccc2cccnc12)c1ccccc1 | active: 25.9 µM | 
3 | CN1CCN(C(=O)C2=C[C@H](c3csc4ccccc34)C[C@H](OCc3ccc(CO)cc3)O2)CC1 |  | inactive: -12%
4 | CCCCNC(=O)Cn1nnc(-c2ccccc2)c1COc1ccc(C(C)=O)cc1 | inconclusive: 23.1 µM [rising, single point] | 
5 | C=C(CN(C)C)C(=O)c1cc(C)ccc1C | inconclusive: 23.1 µM [cytotoxic, single point] | 
6 | Cc1cccc(N(C(=O)Cn2nnc3ccccc32)C(C(=O)NC(C)(C)C)c2ccsc2)c1C (stereo not drawn) |  | inactive: 1.93%
7 | CC(=O)N1CCN(C(=O)c2cc(C)nc3ccccc23)CC1 |  | inactive: -3.06%
8 | COc1cc(-c2coc3c(C(=O)NC4CCCCC4)cccc23)ccc1O | active: 16.4 µM | 
9 | Cc1ccc(S(=O)(=O)N2C[C@H]3n4c(=O)ccc(=O)n4C[C@H](OC(=O)NCC4CCCCC4)[C@@]3(O)C2)cc1 | active: 20.6 µM | 
10 | CC(=O)Oc1ccc(C(=O)NCc2ccco2)cc1 |  | inactive: -2.77%
11 | COc1cc(NC(=S)NCc2cccnc2)cc(OC)c1OC |  | inactive: 15.7%
12 | CCOC(=O)CC(S(=O)(=O)c1ccccc1)S(=O)(=O)c1ccccc1 | inconclusive: 20.6 µM [cytotoxic, single point] | 
13 | COc1ccc(NC(=O)C2(C)Cc3c(-c4ccccc4)ccnc3O2)cn1 (stereo not drawn) | inconclusive: 10.3 µM [cytotoxic, partial curve] | 
14 | CC(C)CN1C(=O)C(=Nc2cccnc2)c2ccccc21 | inconclusive: 29.1 µM [cytotoxic, single point] | 
15 | Cc1ccc(OCCSc2nc3ccccc3n2CC(=O)O)c(C(C)C)c1 |  | inactive: -7.08%
16 | COc1cccc(C(C)(O)c2nc(-c3cc4ccccc4o3)cs2)c1 (stereo not drawn) |  | inconclusive: -46%
17 | O=C(NNC(=O)C12CC3CC(CC(O)(C3)C1)C2)c1csc(N2CCOCC2)n1 |  | inactive: -4.19%
18 | COc1ccc2[nH]c(=O)c(CNc3cc(C)ccc3C)cc2c1 | inconclusive: 14.6 µM [cytotoxic, single point] | 
19 | Cc1nc2sccn2c(=O)c1CCN1CCC(=C(c2ccc(F)cc2)c2ccc(F)cc2)CC1 | inconclusive: 23.1 µM [cytotoxic, single point] | 
20 | Cc1cc(Cl)ccc1C(O)c1ncc(-c2ccccc2C(F)(F)F)[nH]1 (stereo not drawn) |  | inconclusive: -47.8%
21 | Cc1cccc(-c2ccc([N+](=O)[O-])cc2CN2CCN(c3ncc(Cc4ccccc4)cn3)CC2)c1 | inconclusive: 20.6 µM [cytotoxic, single point] | 
22 | CCc1ccc(C(O)c2ncc(-c3ccccc3C)[nH]2)cc1 (stereo not drawn) | inconclusive: 0.58 µM [rising, full curve, poor fit] | 
23 | N#CCCn1cc(C(=O)Nc2ccccc2Br)c(-c2cc3ccccc3o2)n1 |  | inactive: 2.66%
24 | OC(c1ccc(F)c(F)c1)c1nc(-c2cncnc2)cs1 (stereo not drawn) |  | inactive: 11.8%
25 | C/C(N)=C(/C#N)C(=O)COC(=O)c1cc(-c2ccc(Br)cc2)nc2ccccc12 | inconclusive: 20.6 µM [cytotoxic, single point] and inconclusive: 14.6 µM [cytotoxic, partial curve] | 

Row | SMILES | Potency | activity, negative = less viability
26 | S=C1SCN(CC2CC2)CN1CC1CC1 | inconclusive: 18.4 µM [cytotoxic, single point] | 
27 | C=CC[n+]1c(/C=C2\C=Cc3cc(C)ccc3N2CC)ccc2ccccc21 | inconclusive: 25.9 µM [cytotoxic, partial curve] | 
28 | COc1cccc(-c2onc3ccc(C4(C)OCCO4)cc23)c1 |  | inactive: 0%
29 | C=C1[C@@H](O)[C@@H]2O[C@]3(CC[C@H](/C=C/[C@@H](C)[C@@H]4CC(C)=CC5(O[C@H](C[C@@](C)(O)C(=O)OC)CC[C@H]5O)O4)O3)CC[C@H]2O[C@@H]1[C@@H](O)C[C@H](C)[C@H]1OC2(CCCCO2)CC[C@H]1C (stereo partly drawn) | active: 0.651 µM | 
30 | CC1(C)CC(=O)C2=C(C1)c1c(ccc3ccccc13)NC2c1ccco1 (stereo not drawn) | inconclusive: 35.5 µM [cytotoxic, single point] | 
31 | Cc1ccsc1C(=O)NCc1ccc(F)cc1 |  | inactive: 5.65%
32 | COc1ccc(-c2cc(C(=O)Nc3cc(C)n(Cc4ccc(Cl)cc4)n3)no2)cc1OC | inconclusive: 31.6 µM [cytotoxic, single point] | 
33 | Cc1ccc(O)c(N=CC2=C(O)c3ccccc3C2=O)c1 | inconclusive: 16.4 µM [cytotoxic, single point] | 
34 | COc1ccc(F)cc1C1=CC(=O)C[C@H](c2ccc3c(c2)OCO3)C1 | inconclusive: 18.4 µM [cytotoxic, single point] | 
35 | Cc1ccc2nc(C)c3c(c2c1)N(c1ccc(F)cc1)CC3 | active: 20.6 µM | 
36 | O=C(NNC(=O)c1cccnc1SCc1cccc([N+](=O)[O-])c1)c1ccccn1 | inconclusive: 16.4 µM [cytotoxic, single point] | 
37 | CCOc1ccc(C(O)Cn2c(=N)n(CCN3CCCCC3)c3ccccc32)cc1 (stereo not drawn) | inconclusive: 22.4 µM [cytotoxic, single point] | 
38 | COc1cccc(/C=N/NC(=O)c2ccoc2C)c1O | inconclusive: 9.2 µM [cytotoxic, partial curve] | 
39 | COc1cccc(-c2nnc(NC(=O)c3ccccc3Br)o2)c1 | inconclusive: 14.6 µM [cytotoxic, partial curve] | 
40 | CCN(CC)Cc1ccc(NC(=O)c2sc3cc(Cl)ccc3c2Cl)cc1 | active: 7.31 µM | 
41 | COc1cccc(C(=O)NCCS(=O)(=O)NCCCc2ccccc2)c1 |  | inactive: 5.74%
42 | CCN(CC)CCN(C(=O)c1ccc2c(c1)CCCC2)c1nc2c(OC)cccc2s1 | inconclusive: 16.4 µM [cytotoxic, single point] | 
43 | CCc1c(C)nc2ncnn2c1N1CCCC(C(=O)NCc2ccco2)C1 (stereo not drawn) |  | inactive: 0.512%
44 | O=C(CSc1nnc(-c2ccccc2)o1)NC1CCS(=O)(=O)C1 (stereo not drawn) | inconclusive: 29.1 µM [rising, single point] | 
45 | CC(C)C1Oc2ccccc2N(CC(=O)NC2CCCCC2)C1=O (stereo not drawn) | inconclusive: 20.6 µM [cytotoxic, single point] | 
46 | O=C(NCc1ccc2c(c1)OCO2)c1cc([N+](=O)[O-])ccc1N1CCOCC1 | inconclusive: 18.4 µM [cytotoxic, single point] | 
47 | Cc1ccc(C)n1-c1cccc(NC(=O)c2ccccc2)c1 |  | inactive: -14.3%
48 | NC(N)=NS(=O)(=O)c1ccc(N/C=C\C(=O)c2ccncc2)cc1 | inconclusive: 18.4 µM [rising, single point] | 
49 | CCC(=O)N1CCN(c2ccccc2NC(=O)COc2ccc(C(C)C)cc2)CC1 | inconclusive: 29.1 µM [cytotoxic, single point] | 
50 | CCCCc1nc2ccccc2c(=O)n1NC(=O)c1c(O)c2c(n(CC(C)C)c1=O)CCCC2 |  | inactive: 17%

Row | SMILES | Potency | activity, negative = less viability
51 | COc1ccc(-c2ocnc2C(=O)NCc2nn(-c3ccccc3)nc2C)cc1 | inconclusive: 18.4 µM [cytotoxic, single point] | 
52 | CCOc1ccccc1CN1CCNC(=O)C1CC(=O)NCCc1ccccn1 (stereo not drawn) |  | inactive: -0.275%
53 | COc1ccc(OC)c(/C=C/c2c([N+](=O)[O-])c(=O)n(C)c(=O)n2C)c1 |  | inactive: -25.8%
54 | CCOC(=O)c1nnn(-c2nonc2N)c1COc1cc(C)c(Cl)c(C)c1 | inconclusive: 23.1 µM [cytotoxic, single point] | 
55 | O=C(CSc1nc(Nc2ccccc2)nc(N2CCOCC2)n1)Nc1cc(Cl)ccc1O | active: 16.4 µM | 
56 | COc1ccccc1CNc1nc(NCc2ccc(C(C)C)cc2)c2sccc2n1 | active: 20.6 µM | 
57 | COc1ccc(N2C(=O)C3CCCN3C2c2cccc(OC)c2OC)cc1 (stereo not drawn) |  | inactive: 11.8%
58 | CCOC(=O)c1cnc(-n2nc(C)cc2C)nc1Nc1ccc(O)cc1 |  | inactive: 15.5%
59 | CCOC(=O)Nc1ccc2c(c1)C(=NNC(N)=S)c1ccccc1-2 | inconclusive: 29.1 µM [cytotoxic, single point] | 
60 | O=C1c2c(O)ccc(O)c2C(=O)c2c(NCCNCCO)ccc(NCCNCCO)c21 | active: 1.46 µM | 
61 | CSc1cccc(Nc2ccc(S(=O)(=O)N3CCOCC3)cc2[N+](=O)[O-])c1 |  | inactive: -8.42%
62 | CCCCN(CC)CCNC(=O)c1cc2c(=O)[nH]c3ccc(C)cc3c2s1 | active: 16.4 µM | 
63 | COc1ccc(Cn2c(-c3ccc(C)cc3)c[n+]3ccccc23)cc1 | active: 4.11 µM | 
64 | COc1ccc(/C=C/c2ccncc2)c2ccccc12 | inconclusive: 35.5 µM [cytotoxic, single point] | 
65 | Cc1ccc(C(=O)NNC(=S)NC(=O)c2ccco2)cc1 | inconclusive: 25.9 µM [cytotoxic, partial curve, poor fit] | 
66 | COc1cc(NC(=O)Nc2nc(C(N)CCc3ccccc3)cs2)cc(OC)c1OC (stereo not drawn) | active: 18.4 µM | 
67 | COc1cc(OC)cc(-c2cc3nc(C4CCN(C(=O)OC(C)(C)C)CC4)cc(=O)n3[nH]2)c1 | inconclusive: 35.5 µM [cytotoxic, single point] | 
68 | COC(=O)c1sc(NC(C)=O)c(C(=O)OC)c1C |  | inconclusive: 30.7%
69 | Cc1cc(N2CCN(S(=O)(=O)c3ccccc3)CC2)c2ccccc2n1 | inconclusive: 35.5 µM [cytotoxic, single point] | 
70 | COc1cccc(NC(=O)CN(C)C(=O)c2cc(-c3ccco3)nc3ccccc23)c1 |  | inactive: -20.1%
71 | O=C(OCc1nc2scc(-c3ccccc3)c2c(=O)[nH]1)c1ccco1 |  | inactive: 7.03%
72 | COc1ccc(CCNCc2c(OC)ccc3ccccc23)cc1OC | inconclusive: 10.3 µM [cytotoxic, partial curve] | 
73 | CNC[C@H](Cc1ccccc1)NC[C@@H](Cc1cccc2ccccc12)NCCc1ccc(C)cc1 | inconclusive: 25.9 µM [cytotoxic, single point] | 
